The whole screen tested about 45,000 compounds, of which about 200 (0.44%) were called active. Roughly 7% stayed inconclusive and do not appear here. Calls come from the whole dose curve; as a rule, active = well fitted activation curve with a large enough effect; inconclusive = small, poorly fitted or top-dose-only effect; inactive = no such curve, though single readings can be large or run the other way. This is one part of the list.
Experiment: qHTS of TDP-43 Inhibitors: NCGC Sytravon Library Screen; note: 0% is about no effect; nearly all actives have a fitted effect of over 55% in size
Conditions: yeast TDP-43 toxicity rescue, BacTiter-Glo growth, 24 h; series mostly up to 46.1 µM; growth rescue (activation): at the top concentration
Text: The goal of this project is to identify new chemical probes capable of reversing the toxicity associated with TDP-43 which is associated with frontotemporal lobar degeneration and amyotrophic lateral sclerosis. These compounds will provide a complementary approach to deciphering the tangled mechanisms of toxicity and protection that we have uncovered through genome-wide genetic screens and are beginning to uncover in a large-scale proteomics analysis with mass spectroscopy. To this end, a miniaturized assay was developed to be screened against the Molecular Libraries Small Molecule Repository (MLSMR) to discover TDP-43 inhibitors. Please note that in the set-up this yeast-based assay compounds that inhibit as TDP-43, have a read-out as activators. NIH Chemical Genomics Center [NCGC] NIH Molecular Libraries Probe Centers Network [MLPCN] Assay Submitter (PI): Susan Lindquist, Whitehead Institute/MIT MLPCN Grant: R21 NS060957
Dispense 2.5 microL yeast galactose medium per 1536-well plate, pin compound, dispense 2.5 microL TDP-43 expressing yeast in galactose medium at OD600=0.02 (pregrown in raffinose medium to mid-log phase) per well, incubate for 24 hr at 30 deg C, and cell growth will be measured using 5 microL of Bactiter/Glo reagent to entire plate and read using Luminescence Protocol in ViewLux.

Row | SMILES | growth rescue (activation)
1 | CCN(CC)CCCNC(=S)N1CCN(c2nc(-c3ccccc3)cs2)CC1 | inactive: 6.02%
2 | CCOC(=O)c1c(-c2ccccc2)csc1NC(=O)CSc1nnc(C)s1 | inactive: 6.16%
3 | Cn1cc(CNCCN2CCCCC2=O)c(-c2cccc(Cl)c2)n1 | inactive: 10.8%
4 | Cc1cc(C(=O)NNC(=O)c2cccc(S(=O)(=O)N3CCOCC3)c2)c2ccccc2n1 | inactive: -3.44%
5 | O=C(/C=C/c1ccc(Cl)cc1Cl)N(Cc1ccccc1)C1CCS(=O)(=O)C1 (configuration not stated) | inactive: 23.6%
6 | COCc1cc(C)nc(SC)c1C#N | inactive: 2.92%
7 | Cc1ccccc1-c1nnc(CN2CCN(C(=O)c3ccco3)CC2)o1 | inactive: -2.44%
8 | Cc1onc(-c2c(F)cccc2Cl)c1C(=O)Nc1ccc(S(=O)(=O)N2CCOCC2)cc1 | inactive: 25.1%
9 | CCCS(=O)(=O)N1CCN(Cc2ccc3c(c2)c2ccccc2n3CC)CC1 | inactive: 11.7%
10 | CCc1cc(-c2n[nH]c(C)c2-c2nc3ccccc3n2C)c(O)cc1O | inactive: 2.77%
11 | Cc1ccn(CCC(=O)N2CCCC(CCC(=O)NCc3ccc(F)c(F)c3)C2)n1 (configuration not stated) | inactive: 3.26%
12 | Cc1nc2ccc(C(=O)N(C)Cc3ccco3)cn2c1N(C)CC1CCCCC1 | inactive: 9.93%
13 | COc1ccccc1-n1c(C)cc(/C=C2/C(=N)N3C(=NC2=O)SN=C3S(C)(=O)=O)c1C | inactive: -10.6%
14 | O=C(NN1C(=O)NC2(CCCCC2)C1=O)c1ccc(-c2ccccc2Cl)o1 | inactive: 11.8%
15 | CCC(C)NC(=O)Cn1c(=O)n(CCCCCC(=O)Nc2ccccc2)c(=O)c2sccc21 (configuration not stated) | inactive: 3.36%
16 | CN1C(=O)CC(C(=O)Nc2ccc(C(=O)O)cc2)SC1=Nc1ccc(Cl)cc1 (configuration not stated) | inactive: 7.73%
17 | CC(C)(C)NC(=O)C(c1c[nH]c2ccccc12)N(C(=O)Cn1nnc(-c2ccc(F)cc2)n1)c1cccc(O)c1 (configuration not stated) | inactive: 4.81%
18 | O=C(NCC1COc2ccccc2O1)C1CCN(S(=O)(=O)c2ccccc2)CC1 (configuration not stated) | inactive: 25%
19 | COc1cc(C(=O)Oc2cccc(/C=N/NC(=O)c3cccnc3)c2)cc(OC)c1OC | inactive: 22.2%
20 | O=C(CN1C(=O)N/C(=C\c2ccccc2OCc2ccc(C(=O)O)cc2)C1=O)Nc1ccc(F)cc1 | inactive: 9.71%
21 | COc1ccc(OCC(=O)Nc2ccccc2-c2ccccc2)cc1 | inactive: 22.2%
22 | COC(=O)CC1C(=O)NCCN1C(=O)c1c(F)cccc1F (configuration not stated) | inactive: -6.14%
23 | CCOC(=O)N(C)c1c(CC)nc2c(OCc3ccccc3C(=O)OC)cccn12 | inactive: -1.65%
24 | COCCCNC(=S)Nc1ccc2c(c1)OCCO2 | inactive: 15.2%
25 | COc1ccc(-c2nc(CN3CCN(c4cc(C)nc(C)c4)CC3)c(C)o2)c2ccccc12 | inactive: 0.271%
26 | COCCSc1nnc(NC(=O)c2ccc(OC)c([N+](=O)[O-])c2)s1 | inactive: -4.52%

Row | SMILES | growth rescue (activation)
27 | CCC1CCCCN1C(=O)COC(=O)c1ccc(S(=O)(=O)N2CCOCC2)cc1 (configuration not stated) | inactive: 0.406%
28 | Cc1sc2ncnc(Sc3ccccc3C(=O)Nc3ccc(Br)cc3)c2c1C | inactive: 2.16%
29 | O=S(=O)(NCc1ccccn1)c1cc(Cl)ccc1Cl | inactive: 18.4%
30 | Nc1nonc1-n1nnc(C(=O)N/N=C/c2ccccc2)c1CSc1ccc(Cl)cc1 | inactive: 16.2%
31 | COc1ccc(CC(=O)N2CCCC2)c(OC)c1 | inactive: 24.7%
32 | O=C(NC1CC2CCCC(C1)N2C(=O)Nc1ccccc1)C1CC1 (configuration not stated) | inactive: -3.52%
33 | COc1ccc(CCNC(=O)c2ccccc2N(C)S(=O)(=O)c2ccccc2)cc1 | inactive: 5.29%
34 | O=C(COc1ccc(S(=O)(=O)N2CCCC2)cc1)N1CCN(c2ccccc2F)CC1 | inactive: 13.9%
35 | Nc1nnc(CC(=O)N/N=C/c2ccc(-c3cccc(C(=O)O)c3)o2)s1 | inactive: 1.84%
36 | COc1cccc(CNC(=O)CCC2CCCN(Cc3ccc(OC(F)F)cc3)C2)c1 (configuration not stated) | inactive: 4.5%
37 | COc1cccc(/C=N/Nc2snc(SC)c2C#N)c1 | inactive: 8.64%
38 | Cc1onc(-c2ccccc2)c1C(=O)Nc1ncc([N+](=O)[O-])s1 | inactive: -8.6%
39 | COc1ccc(NC(=O)CN2C(=O)NC(C)(c3ccccc3)C2=O)cc1Cl (configuration not stated) | inactive: 9.7%
40 | CCCCN(Cc1ccccc1)S(=O)(=O)c1ccc2[nH]c(=O)oc2c1 | inactive: 6.71%
41 | O=C(NCCc1nc2ccccc2[nH]1)/C(=C/c1ccco1)NC(=O)c1ccco1 | inactive: -1.57%
42 | CCCOC(=O)Nc1ccccc1C(N)=O | inactive: -10.8%
43 | O=C(O)CSc1nnc(-c2ccc3c(c2)OCO3)n1-c1ccccc1 | inactive: 9.46%
44 | O=C(O)CNC(=O)c1ccc(Oc2c(F)c(F)c(Oc3ccc(C(=O)NCC(=O)O)cc3)c(F)c2F)cc1 | inactive: -3.01%
45 | COc1ccc(CN2C[C@@H](CO)O[C@@H](n3cnc4c(NCCCO)ncnc43)C2)cc1 | inactive: 4.01%
46 | Cc1cc(C=O)c(C)n1-c1cc(C(=O)O)cc(C(=O)O)c1 | inactive: 4.52%
47 | O=C(Nc1cccnc1)c1cccc(S(=O)(=O)Nc2ccccc2F)c1 | inactive: 13.6%
48 | O=C(CSc1nc(-c2ccccc2)nc2ccc(F)cc12)Nc1ccc(C(=O)O)cc1 | inactive: 17.5%
49 | Cc1ccc(S(=O)(=O)Nc2ccc3c(c2)n(C)c(=O)n3C)c(C)c1 | inactive: -3.41%
50 | Cc1cc(NS(=O)(=O)c2ccc(NC(=O)/C=C/c3ccc(C)o3)cc2)nc(C)n1 | inactive: -8.46%
51 | O=C(c1ccc(Br)cc1)c1cc2ccc(O)cc2oc1=O | inactive: -1.14%
52 | O=C(c1ccco1)N1CCN(C(=O)c2ccccc2[N+](=O)[O-])CC1 | inactive: 11%

Reference: PubChem BioAssay AID1347073 (National Center for Advancing Translational Sciences (NCATS), 2019)
